Out of some 150,000 compounds screened, about 540 (0.36%) showed an effect of 50% or more. The list shows a part of the results.

For this assay, the system named is Plasmodium falciparum. In words: Primary screen in NF54 nanoGlo assay, in single point, at 2uM, 72h; a lower Z score goes with more inhibition. The class given is functional, Erythrocyte. As to conditions: timepoint 72 hour.
With `Cc1noc(C)c1CS(=O)(=O)CC(=O)c1cc(C)n(C(C)C)c1C`, the % Inhibition (commonly the change of the read-out against control, counted positive when it falls) was found to be 28% and the Z score was -3.79.

Take `OCC[C@H]1CCc2ccccc2N1Cc1ccn(CC(F)(F)F)n1`: the “% Inhibition” value is on record as -6% and the Z score amounted to 0.71.

In the case of `Cc1ccc(-c2nc3cccnc3s2)cc1NC(=O)CC1CCCCC1`, the “% Inhibition” value was -10% and the Z score came to 1.85.

Take `C[C@@H](O)C(=O)N1CCC(CNC(=O)C2CCCCC2)CC1`: the “% Inhibition” value is on record as 0% and the Z score was 0.09.

As for `O=C(c1ccc(N2CCCN(Cc3ccccc3)C2=O)cc1)N1CCC(O)CC1`, the “% Inhibition” value is reported as -2% and the Z score is 0.32.

Turning to `C=C1C2(C(=O)N3CCCC(C#N)C3)CCC(C2)C1(C)C` (stereo unspecified), the “% Inhibition” value is recorded as -2% and the Z score was determined as 0.21.

`O=C(CNc1ccccc1N1CCCCC1)Nc1ccc2c(c1)OCO2`: the “% Inhibition” value was -5% and the Z score stood at 0.94.

Turning to `CS(=O)(=O)C1CN(c2ccc(C#N)cn2)C1`, the “% Inhibition” value is -6% and the Z score was 0.75.

With `Cn1c(=O)c2c(ncn2CC(=O)OCC(=O)Nc2ccc(Cl)cc2F)n(C)c1=O`, the “% Inhibition” value is listed as -6% and the Z score turned out to be 0.92.

In the case of `CCN(CC)C[C@H](C)OC(=O)c1ccc(Cl)cc1Cl`, the “% Inhibition” value is -4% and the Z score worked out at 0.69.

For `O=C(c1cc(-c2ccccc2)on1)N1CCC(=C2CC2)CC1`, the “% Inhibition” value is given as -20% and the Z score stood at 2.33.

For `O=C(NC[C@@H]1CCCN2CCCC[C@H]12)c1cc2cccc(Cl)c2s1`, the “% Inhibition” value is on record as -11% and the Z score came to 1.43.

As to `COc1ccc(-c2cnsn2)c(OC)c1OC`, the “% Inhibition” value is 3% and the Z score is -0.61.

For the molecule `Cc1cc(Cl)c(C(C)NCC2CCN(S(C)(=O)=O)C2)cc1C` (stereo unspecified), the “% Inhibition” value is -6% and the Z score stood at 1.12.

Take `CC(C)c1nc(C2CCCN(C(=O)C(C)n3cncn3)C2)no1` (stereo unspecified): the “% Inhibition” value was -4% and the Z score came out at 0.61.

Take `C[C@H](NC(=O)c1ccc2c(c1)OCCO2)C1CC1`: the “% Inhibition” value is on record as 2% and the Z score is recorded as -0.23.

With `Cc1ccc(C(F)(F)F)cc1CN1CC[C@](C)(O)[C@H](O)C1`, the “% Inhibition” value is -8% and the Z score is given as 1.62.

As to `COc1ccc(C(=O)N2CCCOCCNC(=O)CC2)cc1F`, the “% Inhibition” value is reported as -14% and the Z score is 1.85.

Take `COc1ccc(F)cc1S(=O)(=O)N1CCN=C1Cc1cccc2ccccc12`: the “% Inhibition” value was 1% and the Z score is given as -0.17.

As for `Cc1nnc(N[C@H]2CCO[C@@H]2c2cnn(C)c2)o1`, the “% Inhibition” value is -2% and the Z score was determined as 0.28.

Regarding `CC[C@H](C)n1nnc2cc(S(=O)(=O)N3CCC(C(=O)Nc4ccc(C)cc4Cl)CC3)ccc21`, the “% Inhibition” value is -20% and the Z score was found to be 2.7.

`O=C(NC1Cc2ccccc2C1)c1cc2ncc(CCO)cn2n1`: the “% Inhibition” value is reported as -6% and the Z score came out at 1.08.

`CC(=O)c1c(F)cccc1N[C@@H](C)CCO`: the “% Inhibition” value is recorded as 3% and the Z score is -0.29.

With `COc1ccc(CN2CCc3nnc(-c4ccccc4)n3CC2)cc1OC`, the “% Inhibition” value is on record as -7% and the Z score worked out at 0.85.

On to `O=C(N[C@H]1CCOc2ccccc21)c1cccs1`, for which the “% Inhibition” value was -11% and the Z score is given as 1.03.

As to `Cc1nc(NC(=O)Cc2csc(NC(=O)c3ncccn3)n2)sc1C`, the “% Inhibition” value is -17% and the Z score is recorded as 2.03.

Turning to `c1ccc(-c2csc(CN3CCc4nncn4CC3)n2)cc1`, the “% Inhibition” value is given as 0% and the Z score is -0.01.

In the case of `CCNC(=O)N1CC(C(=O)NCc2ccco2)CC(c2ccc(OC)c(OC)c2)C1` (stereo unspecified), the “% Inhibition” value is given as -11% and the Z score stood at 1.05.

With `Cc1c(F)cccc1N1CC[C@@H](C(=O)Nc2ccc(C(F)(F)F)cc2)C1=O`, the “% Inhibition” value came to 4% and the Z score is given as -0.46.

For `Cc1cnc(CN(C)CCOc2ccc(Cl)cc2C)cn1`, the “% Inhibition” value came to 3% and the Z score was -0.4.

As for `Cc1nc(C)c(C(=O)Nc2ccc3c(c2)CCCN3)o1`, the “% Inhibition” value is recorded as -2% and the Z score is recorded as 0.21.

Turning to `CC(C)c1nccc(C(=O)N2CCOC(C)(C)C2)n1`, the “% Inhibition” value is reported as -5% and the Z score worked out at 0.72.

As for `Cn1cnc2c1CCN(Cc1cn3cc(Cl)ccc3n1)C2`, the “% Inhibition” value is -5% and the Z score was 0.62.

`c1ccc(-c2nc(-c3cccc(-c4nc(-c5ccccc5)c(-c5ccccc5)[nH]4)c3)[nH]c2-c2ccccc2)cc1`: the “% Inhibition” value is reported as -2% and the Z score was 0.21.

As for `CCCCc1ccc(-c2ccc(-n3cncc3C(=O)NC3CCN(Cc4ccccc4)CC3)cc2)cc1`, the “% Inhibition” value is reported as -5% and the Z score came out at 0.74.

For `CC#CCn1c(=O)n(C[C@H]2CCCN2CC)c2ccc(C(=O)O)cc21`, the “% Inhibition” value was found to be 6% and the Z score is -1.29.

Turning to `O=C(O)c1cc(S(=O)(=O)N2CC3(CC3)c3ccccc32)cs1`, the “% Inhibition” value was -4% and the Z score turned out to be 0.42.

For `O=C1CC(CC2CC2)=NN1c1cc(F)ccc1F`, the “% Inhibition” value was -11% and the Z score worked out at 1.33.

As for `CCS(=O)(=O)N1CC2(C[C@H](N(C)Cc3ccccc3)CO2)C1`, the “% Inhibition” value is -2% and the Z score was 0.4.

As for `Cc1ccc(-c2noc(-c3cccc4c3C(=O)N(C3CCCC3)C4)n2)cc1`, the “% Inhibition” value is given as -13% and the Z score is given as 1.64.

Turning to `CCOc1ncc(C)cc1NC(=O)N1CCN(C(C)=O)C2(CCCCC2)C1`, the “% Inhibition” value is 12% and the Z score is recorded as -1.53.

As to `CCn1ccnc1CN(C)[C@@H]1CCN(Cc2ccccc2)C1`, the “% Inhibition” value was -9% and the Z score was 1.47.

Regarding `CCc1cccc(C)c1NC(=O)[C@H]1CCCN(S(=O)(=O)c2ccc3c(c2)NC(=O)CO3)C1`, the “% Inhibition” value is given as -4% and the Z score turned out to be 0.66.
